# In PubChem BioAssay AID463173 (ICCB-Longwood Screening Facility, Harvard Medical School, 2010):
# Among all 52,000 compounds or so, about 1,700 (3.3%) were called active. No stated cut-off is given here; in the data, active means survival mostly below about 52% (no sharp cut-off); inactive means mostly above about 56%. This is one part of the list.
# Test system: Wild type
# Test: S. aureus survival, RN4220 and DeltatarO strains – OD600, teichoic acid synthesis inhibitors, primary screen (AID 463173)
# Settings: S. aureus RN4220 wild type/DeltatarO growth, OD600, 18 h, active compounds read low, screened at 18.75 µg/mL (by protocol)
row,Structure (SMILES),survival
1,CCC(C)NC(=O)C1CCC(CNS(=O)(=O)c2cccc3nsnc23)CC1 (stereo not given),inactive: 89%
2,CCS(=O)(=O)N1CC(=O)N(c2ccc(C)c(C)c2)C(C)(C(=O)NC2CCCCC2)C1 (stereo not given),inactive: 82%
3,O=C(Oc1ccc2ccccc2c1)N1CCOCC1,inactive: 103%
4,O=c1oc2ccc(Br)cc2cc1-c1nc(-c2ccccc2)no1,inactive: 66%
5,CCc1ccc(-c2nc3c(c(SCc4ccc(F)cc4)n2)Cc2c(CO)cnc(C)c2O3)cc1,inactive: 85%
6,O=C(CN1CCCCC1)N/N=C/c1ccc(/C=N/NC(=O)CN2CCCCC2)cc1,inactive: 79%
7,COc1ccc(Br)cc1CN1CCN(C(=O)c2cccc(OC)c2OC)CC1,inactive: 111%
8,CC1=C(C(=O)NCCc2ccc(Cl)cc2)C2(CCCCC2)OC1=O,inactive: 73%
9,COc1cccc(CNC(=O)Cn2ncc3c4ccccc4n(C)c3c2=O)c1,inactive: 87%
10,COCCNC(=O)CCCn1c(SCC(=O)Nc2cccc(C)c2)nc2c(sc3ccccc32)c1=O,inactive: 86%
11,Cc1cccc(NC(=O)CSc2nc3c(oc4ccccc43)c(=O)n2C(C)C)c1,inactive: 68%
12,COc1ccc(N2CCN(C(c3ccccc3)c3nnc(-c4ccccc4Cl)o3)CC2)cc1 (stereo not given),inactive: 22%
13,COc1ccc(C(=O)c2oc3ccccc3c2NC(=O)COc2c(C)cc(C)cc2C)cc1,inactive: 68%
14,O=C(CN1CCOCC1)Nc1c(-c2ccccc2)c2cc(Br)ccc2[nH]c1=O,inactive: 119%
15,COc1cccc(CNC(=O)c2c(O)nc3ccccn3c2=O)c1,inactive: 55%
16,CCOc1ccc(N2CC(c3nc4ccccc4n3CC(C)C)CC2=O)cc1 (stereo not given),inactive: 83%
17,COc1ccc(Cc2nnc(SCC(N)=O)o2)cc1,inactive: 111%
18,NC1=NN(c2cccc(C(=O)O)c2)C(=O)C1,inactive: 94%
19,Cc1n[nH]c(=S)n1CC1CCCO1 (stereo not given),inactive: 107%
20,COc1cc(-c2noc(-c3ccc(NCCc4ccccc4)c([N+](=O)[O-])c3)n2)cc(OC)c1OC,inactive: 84%
21,Cc1ccc(C)c(N2CCN(C(=O)c3ccc4c(Cl)c5c(nc4c3)CCCC5)CC2)c1,inactive: 90%
22,COc1cc(NC(=O)CCNS(=O)(=O)c2ccc3c(c2)CCN3C(=O)C2CC2)cc(OC)c1,inactive: 82%
23,COCC(=O)N1CCc2cc(OC)c(OC)cc2C1COc1ccc2c(C)cc(=O)oc2c1 (stereo not given),inactive: 68%

row,Structure (SMILES),survival
1,O=C(Nc1nc2nc(-c3ccccc3)cc(=O)n2[nH]1)c1ccc(F)cc1,inactive: 92%
2,N#Cc1ccccc1Cn1nnc2c(=O)[nH]c(C3CCCN(S(=O)(=O)c4ccc(F)cc4)C3)nc21 (stereo not given),inactive: 111%
3,O=C(Nc1sc2c(c1C(=O)NCc1ccccc1)CCCC2)c1cc(=O)c2cc(Cl)ccc2o1,inactive: 81%
4,CCc1ccccc1N1CC(c2nc3ccccc3n2Cc2cccc(C)c2)CC1=O (stereo not given),inactive: 66%
5,CCOc1ccccc1N1CC(c2nc3ccccc3n2CCCOc2ccccc2OC)CC1=O (stereo not given),inactive: 79%
6,Cc1ccc(N2C(=O)CC(N3CCc4ccccc43)C2=O)cc1Cl (stereo not given),inactive: 104%
7,CCOc1ccc(S(=O)(=O)NCCc2sc(-c3ccc(C)cc3)nc2C)cc1,inactive: 73%
8,COc1ccc(CNc2ccc(C)c(C)c2)c(OC)c1OC,inactive: 131%
9,CC1CCc2nn(CC(=O)Nc3cccc(C(F)(F)F)c3)c(=O)cc2C1 (stereo not given),inactive: 73%
10,COc1cc(NC(=O)Cn2c(=O)n(C(C)C)c(=O)c3oc4ccccc4c32)cc(OC)c1,inactive: 76%
11,O=C(NCc1ccccc1)C1CCC(CNS(=O)(=O)c2ccc(Br)s2)CC1 (stereo not given),inactive: 73%
12,Cn1c(C(=O)NCc2ccc3c(c2)OCO3)cc2sccc21,inactive: 113%
13,O=C(Nc1cccnc1Cl)c1cc(-c2ccc(Cl)cc2)on1,inactive: 83%
14,COc1cccc(COC(=O)c2ccc(-c3nnn(Cc4ccccc4)n3)cc2)c1,inactive: 118%
15,CC1CCN(S(=O)(=O)c2cc(C(=O)NCc3ccc(F)cc3)n(C)c2)CC1,inactive: 66%
16,CCc1ccc(NC(=O)Cn2nnc(C(=O)NCc3ccco3)c2N)cc1,inactive: 94%
17,Cc1ccccc1C(=O)Nc1nnc(SCc2cc(=O)c3c(C)ccc(C)c3[nH]2)s1,inactive: 135%
18,COc1ccc(CN(C(=O)Nc2ccc(C)c(F)c2)C2CCN(C(C)=O)CC2)cc1,inactive: 69%
19,CC(C)c1ccc(C(=O)Nc2cccc3cccnc23)cc1,active: -3%
20,O=C1C(c2ccc(F)cc2)N(CCc2ccccc2)C(=O)CN1C1CCCCC1 (stereo not given),inactive: 105%
21,CNC(=O)c1cc2n(n1)CCCN(Cc1ccc(F)cc1)C2=O,inactive: 45%
22,CC(C)(C)C(=O)NC1CCN(CC(=O)N2CCCCCC2)CC1,inactive: 119%
23,CSc1ccc(CCNC(=O)c2cc3n(n2)CCCN(Cc2ccc(C)cc2)C3=O)cc1,inactive: 66%

row,Structure (SMILES),survival
1,CC1(C)OC(=O)C(=Cc2ccc(-c3ccc(S(N)(=O)=O)cc3)o2)C(=O)O1,inactive: 108%
2,CCOc1ccc(CCNS(=O)(=O)c2c(C)nc3sc(C)cn3c2=O)cc1OCC,inactive: 93%
3,CC(=O)c1ccc(NC(=O)CCc2c(C)nn(-c3ccc4nncn4n3)c2C)cc1,inactive: 119%
4,CC(C)n1c(=S)[nH]c2c1c(=O)[nH]c(=O)n2C,inactive: 94%
5,Cc1ccc(NC(=O)CCS(=O)(=O)c2ccc3nc(C)sc3c2)cc1,inactive: 84%
6,CCC1CN(C(=O)N2CCC(C(=O)NCCOC)CC2)c2ccccc2O1 (stereo not given),inactive: 85%
7,CC(C)c1ccc(NS(=O)(=O)c2ccc3[nH]c(=O)ccc3c2)cc1,inactive: 89%
8,COC(=O)c1ccc(Cn2nc(-c3ccc(C)c(C)c3)ccc2=O)cc1,inactive: 99%
9,CCc1ccc(NC(=O)C2CCCN(S(=O)(=O)c3c(C)[nH]c(=O)[nH]c3=O)C2)cc1 (stereo not given),inactive: 84%
10,CCOC(=O)Cc1nnc2c(Nc3ccccc3OC)nc3nonc3n12,inactive: 120%
11,CCSc1nnc(-c2ccc(S(=O)(=O)N3CCOCC3)cc2)n1C,inactive: 107%
12,O=C(Nc1noc2ccccc12)c1cccc(F)c1,inactive: 102%
13,CC(C)c1ccc(NC(=O)C2CCCN(S(=O)(=O)c3cccc4nonc34)C2)cc1 (stereo not given),inactive: 94%
14,O=C(CCS(=O)(=O)c1cc2c3c(c1)CCN3C(=O)CC2)NCc1ccc(F)cc1,inactive: 77%
15,COCCc1nn2c(=O)cc(COC(=O)COc3ccccc3C)nc2s1,inactive: 80%
16,COc1ccc(Cl)cc1Nc1ncnc2c1nc1n2CCCC1,inactive: 63%
17,CCC(=O)Nc1ccc2nc(SCC(=O)N3CCc4ccccc43)sc2c1,inactive: 88%
18,CCOC(=O)c1ccccc1NC1(c2ccc(OC)cc2)C(=O)c2ccccc2C1=O,inactive: 64%
19,Cc1cc(C)c(NC(=O)CSc2nnc3[nH]c(=O)cc(C)n23)c(C)c1,inactive: 92%
20,CCNc1nc(NC(C)C)nc(NC(N)NOC)n1 (stereo not given),inactive: 103%
21,O=c1c2ccccc2n2c(-c3ccc(F)c(F)c3)nnc2n1CCc1ccccc1,inactive: 88%
22,COC(=O)c1ccc(C2c3c(oc4cc(C)c(C)cc4c3=O)C(=O)N2c2ccccn2)cc1 (stereo not given),inactive: 66%
23,C/C(=N\OCCN1CCCCC1)C1COc2ccccc2O1 (stereo not given),inactive: 96%

row,Structure (SMILES),survival
1,CCOC(=O)c1c(S(=O)(=O)N2CCCC(C(=O)Nc3ccc(C)cc3C)C2)c(C)n(CC)c1C (stereo not given),inactive: 78%
2,CCOC(=O)C1CCN(C(=O)CSc2c3c(nc4ccc(Cl)cc24)CCCC3)CC1,inactive: 56%
3,CC(=O)Nc1ccc(C(=O)CSc2nnc3cc(C)c4ccccc4n23)cc1,inactive: 88%
4,CCOc1ccc(S(=O)(=O)Nc2ccc3c(c2)c(C(C)=O)c(C)n3S(=O)(=O)c2ccc(OCC)cc2)cc1,inactive: 95%
5,Cc1cc(C)c(NC(=O)Cn2c(=O)n(CCC(=O)NCc3ccc4c(c3)OCO4)c(=O)c3ccccc32)c(C)c1,inactive: 93%
6,O=C(NCc1ccc(Cl)cc1)C(=O)NCC(c1ccco1)S(=O)(=O)c1cccs1 (stereo not given),inactive: 76%
7,Cc1ccc(CNC(=O)c2ccc(-c3nc(CN4CCc5ccccc54)c(C)o3)cc2)cc1,inactive: 72%
8,CCCCNC(=O)c1ccc2c(=O)n(-c3ccccc3)c(=O)[nH]c2c1,inactive: 66%
9,COc1ccc(-c2cc(C(=O)NCC(=O)O)c(C)o2)cc1OC,inactive: 100%
10,COc1ccc(CCC(=O)NC2CC(=O)N(c3ccc(C)c(C)c3)C2)cc1 (stereo not given),inactive: 74%
11,Cc1ccc(NC(=O)c2sc3nc(-c4ccc(F)cc4)cn3c2C)c(C)c1,inactive: 71%
12,CCOc1ccc2[nH]c(=O)c(CN(C(=O)Nc3ccccc3)C3CC3)cc2c1,inactive: 117%
13,CCc1ccccc1Nc1sc(C(=O)c2ccccc2)c(N)c1S(=O)(=O)c1ccccc1,inactive: 127%
14,CN(C)C(=O)c1ccc(S(=O)(=O)NCc2ccc(Cl)cc2)s1,inactive: 123%
15,CCCCN(CC)C(=O)CSc1nc2c(sc3ccccc32)c(=O)n1CCc1ccccc1,inactive: 123%
16,CCN(CCCNC(=O)Cn1ncc2c([nH]c3ccccc32)c1=O)c1cccc(C)c1,inactive: 70%
17,COC(=O)c1scc(-c2ccc(C)cc2)c1S(=O)(=O)N1CCN(c2cccc(Cl)c2)CC1,inactive: 67%
18,CCc1ccccc1NC(=O)Cn1c(=O)n(-c2ccc(C)cc2)c(=O)c2cc(OC)c(OC)cc21,inactive: 90%
19,CC(=O)N1CCc2c(sc3c2c(=O)n(-c2ccccc2C)c(=O)n3CC(=O)Nc2ccccc2)C1,inactive: 69%
20,Cn1c(=O)sc2cc(NS(=O)(=O)c3ccc(C(C)(C)C)cc3)ccc21,inactive: 73%
21,Cc1ccc(S(=O)(=O)c2nc(-c3cccs3)oc2N2CCC(C)CC2)cc1,active: -10%
